# Variants at the floor of the assay are shown more often than the library holds them.
# B1: tRNA (parent)
# chain: CUCUCGGUAGCCAAGUUGGUUUAAGGCGCAAGACUUUAAUUUAUCACUACGAAAUCUUGAGAUCGGGCGUUCGACUCGCCCCCGGGAGAUUUUUUCCUCGAGCAA
# Variants of: B1
# Assay: nonsense suppression (GFP-seq) (ratio to wild type); higher = more function; SUP4oc tRNA, yeast GFP reporter sort-seq
# Method in brief: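 Raffinose/galactose medium with 80 mg/L adenine was used to grow yeast carrying genome-integrated tRNA variants (~3% random-mutation library), RFP, and a galactose-driven GFP ochre reporter. Cells went into GFP/RFP bins, which were Illumina-sequenced, and variants with ≥100 reads and ≥30 cells were scored. Nonsense suppression (GFPSEQ) is the per-bin median GFP/RFP weighted by estimated cell share and expressed relative to the unmutated parent tRNA.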
row,Variant,nonsense suppression
1,C3G G7C U55A,≤ 0.026
2,C3G G10C C11A A62G U63A,≤ 0.026
3,C3G G10U G15C U70G G78A C79U C83U,≤ 0.026
4,C3G G15A G19C A54U U57G A74G,≤ 0.026
5,C3G G15C,≤ 0.026
6,C3G G15U A30C C82U,≤ 0.026
7,C3G G18U,≤ 0.026
8,C3G G25A G84U,≤ 0.026
9,C3G G25C U71G G73U,≤ 0.026
10,C3G G25U C64A,≤ 0.026
11,C3G G26U,≤ 0.026
12,C3G G26U G65A U76C,≤ 0.026
13,C3G G28A U55C G86U G88U,≤ 0.026
14,C3G G61C,0.0292
15,C3G G61C G65A,≤ 0.026
16,C3G G61C U70A A87U,≤ 0.026
17,C3G G66A,≤ 0.026
18,C3G G67A G84A,≤ 0.026
19,C3G G67C,≤ 0.026
20,C3G G67C G73A C77A,≤ 0.026
21,C3G G73A C79U A87C,≤ 0.026
22,C3G U4A U20C A23C U71C G86A,≤ 0.026
23,C3G U4C G7U A13C,≤ 0.026
24,C3G U4G A24C,≤ 0.026

row,Variant,nonsense suppression
1,C3G U4G G26A,≤ 0.026
2,C3G U8A A31G C81A,≤ 0.026
3,C3G U8A G25A,≤ 0.026
4,C3G U8C A14U C29U,≤ 0.026
5,C3G U16C U71C,≤ 0.026
6,C3G U16G G66A,≤ 0.026
7,C3G U20A A54G U70A,≤ 0.026
8,C3G U20C U57C,≤ 0.026
9,C3G U22C,≤ 0.026
10,C3G U55C,0.152
11,C3G U55G,≤ 0.026
12,C3G U55G C83U G84C,≤ 0.026
13,C3G U57A,≤ 0.026
14,C3G U57C C75A G78A,≤ 0.026
15,C3G U57C G66A C77A,≤ 0.026
16,C3G U57G G59A C64U,≤ 0.026
17,C3G U58C G66C A89C,≤ 0.026
18,C3G U58G U76G,≤ 0.026
19,C3G U63C U76C,≤ 0.026
20,C3G U63G,≤ 0.026
21,C3G U63G C77A,≤ 0.026
22,C3G U71G C83A A87U,≤ 0.026
23,C3G U76A,≤ 0.026
24,C3G U76C C82A,≤ 0.026

row,Variant,nonsense suppression
1,C3U,0.739
2,C3U A9C A31C C34G,≤ 0.026
3,C3U A9G,0.195
4,C3U A9G A24G G65C,≤ 0.026
5,C3U A13C,0.184
6,C3U A13C U16A G59U C77U,≤ 0.026
7,C3U A13C U16C C29U A31C G61U,≤ 0.026
8,C3U A13G C34G,0.439
9,C3U A13G U17G C64U U71G C81A G84U,≤ 0.026
10,C3U A13U,0.194
11,C3U A13U C34G,≤ 0.026
12,C3U A14C G28A A74U,≤ 0.026
13,C3U A14G C80G,≤ 0.026
14,C3U A14G U21C A54G G66C G86U,≤ 0.026
15,C3U A14G U21C G67C,≤ 0.026
16,C3U A14U A33U C34G G65U G66A,≤ 0.026
17,C3U A14U G15A A74U,≤ 0.026
18,C3U A23U A30C,≤ 0.026
19,C3U A23U A62G G69A,≤ 0.026
20,C3U A23U G66A C81G,≤ 0.026
21,C3U A23U U35C C56U C81U,≤ 0.026
22,C3U A24C,0.0575
23,C3U A24C C81G,≤ 0.026
24,C3U A24C G26C,≤ 0.026

row,Variant,nonsense suppression
1,C3U A24G C29U G85U A87G,≤ 0.026
2,C3U A30G G73A,≤ 0.026
3,C3U A30U A33G,≤ 0.026
4,C3U A31C G88C,≤ 0.026
5,C3U A31G G86C,≤ 0.026
6,C3U A31G U55G,≤ 0.026
7,C3U A31G U63C G78U,≤ 0.026
8,C3U A31U,≤ 0.026
9,C3U A33C,≤ 0.026
10,C3U A33G,≤ 0.026
11,C3U A33G A60G,≤ 0.026
12,C3U A33G C34G,≤ 0.026
13,C3U A33G C80A,≤ 0.026
14,C3U A54C G88U,≤ 0.026
15,C3U A54C U57A,≤ 0.026
16,C3U A54G U58G,≤ 0.026
17,C3U A60C C68U A74C,≤ 0.026
18,C3U A60C C82A,≤ 0.026
19,C3U A60C C83G G86A,≤ 0.026
20,C3U A60G U71A,≤ 0.026
21,C3U A89U,≤ 0.026
22,C3U C5A G10C G86A,≤ 0.026
23,C3U C5A G10U A13C G28A U58G A89G,≤ 0.026
24,C3U C5A G10U A13C G28A U58G A89U,≤ 0.026

row,Variant,nonsense suppression
1,C3U C5A G61C U70C,≤ 0.026
2,C3U C5G U22C G65A G66C,≤ 0.026
3,C3U C5U A62G,≤ 0.026
4,C3U C5U U8C C79G,≤ 0.026
5,C3U C5U U21G U57C,≤ 0.026
6,C3U C11U A13C,≤ 0.026
7,C3U C11U A24U C29U C34A A62G,≤ 0.026
8,C3U C12A U21G U22C G65A A87G,≤ 0.026
9,C3U C12G C34G,≤ 0.026
10,C3U C12G C82G G86U,≤ 0.026
11,C3U C12G G61A,≤ 0.026
12,C3U C12G U16C U21G C68U,≤ 0.026
13,C3U C12U C82G,≤ 0.026
14,C3U C12U G67C G78C,≤ 0.026
15,C3U C27G G61A G69C,≤ 0.026
16,C3U C27G G66C,≤ 0.026
17,C3U C27U A33G A60U C68A,≤ 0.026
18,C3U C27U U35A U71G,≤ 0.026
19,C3U C29A,≤ 0.026
20,C3U C34A A62C G67A G84U,≤ 0.026
21,C3U C34A A87G,≤ 0.026
22,C3U C34G C64G,≤ 0.026
23,C3U C64U G67U,≤ 0.026
24,C3U C68G C82G,≤ 0.026

row,Variant,nonsense suppression
1,C3U C72G,≤ 0.026
2,C3U C80G,≤ 0.026
3,C3U C81A A87G,≤ 0.026
4,C3U C81G,≤ 0.026
5,C3U C83A,≤ 0.026
6,C3U C83U,≤ 0.026
7,C3U G6A A13C G85A,≤ 0.026
8,C3U G6A C83G A89C,≤ 0.026
9,C3U G6C A9U A13G A23G A60G G69C,≤ 0.026
10,C3U G6U,0.0343
11,C3U G6U A23U G26U C77U,≤ 0.026
12,C3U G6U U22G C81G,≤ 0.026
13,C3U G7A C27G A30U A31U,≤ 0.026
14,C3U G7A U17G,≤ 0.026
15,C3U G7C,≤ 0.026
16,C3U G7C A23G C83U,≤ 0.026
17,C3U G7C A30U G61U,≤ 0.026
18,C3U G7U G66C,≤ 0.026
19,C3U G7U U21A U55A A74U G86C,≤ 0.026
20,C3U G10A C12G G61A U70A U71A G73C,≤ 0.026
21,C3U G10C A62C U71C,≤ 0.026
22,C3U G10C U57C,≤ 0.026
23,C3U G10U C56U U71G A74U,≤ 0.026
24,C3U G15A C34U C75G,≤ 0.026

row,Variant,nonsense suppression
1,C3U G15A G67C C79A,≤ 0.026
2,C3U G15C G18C U20G G25U C56G G88A,≤ 0.026
3,C3U G18A G28U G86A,≤ 0.026
4,C3U G18C A30C G61U C79G G84U,≤ 0.026
5,C3U G18C U70G C75G,≤ 0.026
6,C3U G18U G25C,≤ 0.026
7,C3U G19U,≤ 0.026
8,C3U G19U A62C,≤ 0.026
9,C3U G19U A62U,≤ 0.026
10,C3U G19U U58G,≤ 0.026
11,C3U G19U U71A,≤ 0.026
12,C3U G25C,≤ 0.026
13,C3U G25C G73A C81U,≤ 0.026
14,C3U G25U A33C C72G,≤ 0.026
15,C3U G25U A33C C72G A87C,≤ 0.026
16,C3U G25U A54C U71A,≤ 0.026
17,C3U G25U C80U,≤ 0.026
18,C3U G25U G66U,≤ 0.026
19,C3U G26A A33G U76A G78A,≤ 0.026
20,C3U G26A C34A,≤ 0.026
21,C3U G26C C27U C68U G84A G85C A89C,≤ 0.026
22,C3U G26C G32U U35G U76G G85U,≤ 0.026
23,C3U G28A A31U,≤ 0.026

# — the RNAGym collection of RNA variant scans (doi:10.1101/gad.245936.114)
